Test results: PubChem BioAssay AID1159614 (National Center for Advancing Translational Sciences (NCATS), 2016)
Hit rate of the full screen: of about 45,000 compounds, about 65 (0.1%) were called active. Calls follow the shape of the dose curve; as a rule, active = well fitted activation curve with a large enough effect; inconclusive = small, poorly fitted or top-dose-only effect; inactive = no such curve, though single readings can be large or run the other way. The list shows a part of the results.

Each molecule was assayed against Galactocerebrosidase (Homo sapiens) (UniProt P54803) (assay: A Novel Cell-Based Assay to Identify Small Molecules for B -Galactocerebrosidase). Conditions: 145M-Twi-hGALC-G270D cells (Twitcher mouse brain line with human GALC G270D), HMU-beta-Gal fluorescence, 48 h; series mostly up to 57.5 µM; activation: at the top concentration.
Sequence of UniProt P54803 (P54803 whole entry, looked up): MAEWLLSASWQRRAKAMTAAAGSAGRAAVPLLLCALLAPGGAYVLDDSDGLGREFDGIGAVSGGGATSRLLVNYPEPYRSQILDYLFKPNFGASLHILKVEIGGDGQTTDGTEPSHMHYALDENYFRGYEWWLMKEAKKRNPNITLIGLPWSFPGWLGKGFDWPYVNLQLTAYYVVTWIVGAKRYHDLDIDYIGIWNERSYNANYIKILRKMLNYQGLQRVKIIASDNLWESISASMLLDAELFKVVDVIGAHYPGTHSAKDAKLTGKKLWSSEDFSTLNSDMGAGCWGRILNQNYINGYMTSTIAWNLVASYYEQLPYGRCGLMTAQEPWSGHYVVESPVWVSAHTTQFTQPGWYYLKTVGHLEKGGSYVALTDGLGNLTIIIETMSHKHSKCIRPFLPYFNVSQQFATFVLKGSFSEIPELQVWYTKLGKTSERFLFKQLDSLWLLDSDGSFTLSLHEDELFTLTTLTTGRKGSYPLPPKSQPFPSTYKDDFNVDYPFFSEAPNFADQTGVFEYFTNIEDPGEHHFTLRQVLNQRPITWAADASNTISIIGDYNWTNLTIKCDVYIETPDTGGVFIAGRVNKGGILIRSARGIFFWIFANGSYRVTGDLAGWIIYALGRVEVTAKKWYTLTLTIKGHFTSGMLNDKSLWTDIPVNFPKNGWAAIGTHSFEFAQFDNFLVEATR
Outline: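 Mutant human GALC (G270D), stably expressed in a Twitcher mouse brain cell line lacking endogenous GALC, is measured in live-treated cells via 6-hexadecanoylamino-4-methylumbelliferyl-β-galactoside hydrolysis (0.1 mM final, pH 5.2) with fluorescent detection.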
Also: 0% is about no effect; nearly all actives have a fitted effect of over 65% in size.

activation, inactive:
CCc1ccc(C2CC(=O)c3c([nH]c(C(=O)OC4CCCC4)c3C)C2)cc1 (configuration not stated) -14.1%
COc1cccc(-c2nc(CS(=O)(=O)CC(=O)N3CCN(c4cc(C)ccc4C)CC3)c(C)o2)c1 -9.35%
CSc1ncc(C(=O)NCc2ccccc2F)c(-c2ccccc2)n1 -2.49%
Cc1ccc(C)c(N2CCN(S(=O)(=O)c3ccc4c(c3)C(C(C)C)C(=O)N4)CC2)c1 (configuration not stated) -24.6%
CCCc1ccc(OCC(=O)Nc2sc(C(=O)OCC)c(C)c2C(=O)OCC)cc1 -7.74%
CCc1ccccc1NS(=O)(=O)c1ccc2[nH]cc(C(=O)N(CC)Cc3ccccc3)c(=O)c2c1 -5.44%
COc1ccc(S(=O)(=O)Nc2c(C)nc3nc[nH]n3c2=O)cc1 -9.09%
Cc1ccc2c(CNCc3ccc(C)o3)c(C(=O)O)n(Cc3ccccc3C)c2c1 -0.402%
O=[N+]([O-])c1cccc(S(=O)(=O)NCCNS(=O)(=O)c2cccc([N+](=O)[O-])c2)c1 -16.6%
CCOc1ccc(NC(=O)Cn2c(=O)n(CCCCCC(=O)NCc3ccccc3)c(=O)c3sccc32)cc1 -9.93%
CCc1ccc2occ(CC(=O)Nc3c(C(=O)c4ccc(C)cc4)oc4ccccc34)c2c1 -18.1%
Cc1ccc(S(=O)(=O)n2nc(-c3ccc(Cl)cc3)nc2NCc2ccc(F)cc2)cc1 -19.4%
CC(=O)N1CCCc2cc(S(=O)(=O)N3CCCC(C(=O)N4CCN(c5ccccc5)CC4)C3)ccc21 (configuration not stated) -9.54%
COc1ccc(CNC(=O)c2cc3cc(OC)ccc3oc2=O)cc1 -6.72%
Cc1cc(C)c2c(CC(=O)Nc3ccc(S(=O)(=O)Nc4nc(C)cc(C)n4)cc3)coc2c1 -11.1%
Cc1cc(S(=O)(=O)C(CNC(=O)c2ccc(F)c(F)c2)c2cccs2)ccc1F (configuration not stated) 1.34%
Cc1ccc(-n2ncc3c(Nc4cccc(C(=O)O)c4)ncnc32)cc1 -35.1%
CCCSCCCNC(=O)C1CCN(c2nc3ccccc3nc2C(F)(F)F)CC1 -14.4%
Cc1ccc(NC(=O)C(=O)NCC(c2cccnc2)N2CCN(Cc3ccccc3)CC2)cc1F (configuration not stated) -12.2%
CCCCn1cnc2cc(NCc3ccccc3Cl)ccc21 1.4%
Cc1cccc(/C=C/c2onc(C)c2S(=O)(=O)N2CCC(C(=O)N3CCCCC3)CC2)c1 -18.6%
COc1ccc(-c2[nH]c(-c3ccc(Cl)cc3)nc2SCC(=O)NCC2CCCO2)cc1 (configuration not stated) -16%
O=S(=O)(NCCc1csc2nc(-c3ccccc3)nn12)c1cc(F)ccc1F -10.1%
Cc1ccc(-c2ccc(=O)n(CC(=O)NCCc3ccccc3)n2)cc1 7.18%
COc1ccc(-c2csc3ncnc(Nc4cccc(OC)c4)c23)cc1 -16.7%
CCOCCCNC(=O)c1ccc(-n2c(-c3ccccc3)cc3c2CCC(C)C3)cc1 (configuration not stated) 13.2%
CSc1cccc(NC(=O)Nc2ccccc2OCc2cc(=O)n3cc(C)ccc3n2)c1 -10%
O=C(Cc1cccs1)NC1CC(=O)N(c2ccc(F)cc2)C1 (configuration not stated) -5.73%
Cc1oc(-c2ccc(C(=O)NCc3ccccc3)cc2)nc1CN1CCc2ccccc21 -10.6%
COc1ccc(-c2nc3ccccc3s2)cc1NC(=O)c1ccccc1F 6.58%
O=C(NCc1ccc(Cl)cc1)NCc1noc2ccccc12 -12.8%
COc1ccc(NC(=O)CCNS(=O)(=O)c2ccc3c(c2)CCCC(=O)N3)cc1Cl -19.9%
Cc1cc(N)c2cc(NC(=O)Nc3ccc4nc(C)cc(N)c4c3)ccc2n1 -9.56%
CCc1ccc(S(=O)(=O)Nc2ccc3c(c2)n(C)c(=O)c(=O)n3C)cc1 -9%
CCC(=O)N1CCc2cc(Br)cc(S(=O)(=O)CCC(=O)N3CCN(c4cccc(C)c4)C(C)C3)c21 (configuration not stated) -10.2%
COc1ccc(C(=O)Nc2ccc3nc(SCC(=O)N4CCc5ccccc54)sc3c2)cc1 -22.4%
Cc1ccc2c(c1)C(c1ccc(F)cc1)N(C(=O)c1ccc(S(=O)(=O)N3CCCCC3)cc1)CC(=O)N2 (configuration not stated) -13%
Cc1ccc(S(=O)(=O)c2nnn(-c3ccc(F)c(Cl)c3)c2N)cc1 -18.3%
COC(=O)c1ccccc1NC(=O)C1=CC(c2cccs2)=NS(=O)(=O)N1C -8.48%
Cc1cc(OCC(=O)Nc2cc(-c3nc4ncccc4o3)ccc2C)ccc1Cl -24.7%
COc1ccc(-n2nc3cc(C)c(NC(=O)c4ccc(-c5ccc(Cl)cc5)o4)cc3n2)cc1 -6.79%
COc1ccc(CCNC(=O)c2nc(-c3ccc(Cl)cc3)n3c2CCCCC3)c(OC)c1 -19.8%
COc1ccc(OCc2ccc(-c3nc(C#N)c(NC(C)c4ccccc4)o3)o2)cc1 (configuration not stated) -13.4%
Cc1nn(CC(=O)Nc2ccc(OC(F)(F)F)cc2)c(=O)c2c(C)n(-c3ccc(Cl)cc3)nc12 3.94%
CCOc1ccc2nc(N3CCCC(C(=O)NCCc4ccc(OCC)c(OCC)c4)C3)sc2c1 (configuration not stated) -17.3%
Cc1cccc(C)c1Nc1c(-c2ccccn2)nc2c(C)cccn12 -4.76%
Cc1cc(Cl)ccc1NC(=O)Cc1ccc(NC(=O)N2CCCCc3ccccc32)cc1 -9.05%
CCCCCC1Nc2cc(C(F)(F)F)c(S(N)(=O)=O)cc2S(=O)(=O)N1 (configuration not stated) -17.3%
Cc1ccc(Nc2c(-c3ccc(C)s3)nc3ccccn23)cc1 -5.01%
Cc1ccc(-c2cc3ncc4c(n3n2)-c2cc(F)ccc2OC4)cc1 -4.73%
CCOC(=O)CNC(=O)N1CCCN(S(=O)(=O)c2ccc3c(ccn3CC)c2)CC1 -17.3%
COc1ccc(C)c2sc(N3CCN(C(=O)c4cccc(F)c4)CC3)nc12 -10.7%
CCOc1ccccc1NC(=O)N(Cc1ccc(C)o1)C1CCN(C(C)=O)CC1 -1.18%
CCc1nn2c(=O)cc(COC(=O)c3ccccc3)nc2s1 -19.4%
O=C(c1ccccc1Br)N(Cc1ccco1)Cc1ccco1 3.65%
CCn1c(SCc2c(F)cccc2Cl)nc(=O)c2c(C(=O)OC)cc(C3CC3)nc21 -9.12%
O=C(CSc1nnc(-c2ccc(Cl)cc2)o1)c1ccc([N+](=O)[O-])cc1 -24.9%
CCc1ccc(C(=O)c2cn(CC(=O)Nc3cccc(OC)c3)c3cc4c(cc3c2=O)OCO4)cc1 -19.9%
COc1ccc(C)cc1NC(=O)C1CCN(S(=O)(=O)c2cc(Br)cc3c2N(C(C)=O)CC3)CC1 -0.0027%
CCc1nn(CC(=O)N2CCCCC2)c(=O)c2cc3occc3n12 -13.1%
CCOC(=O)c1noc2ncn(CC(=O)Nc3cccc(C(F)(F)F)c3)c(=O)c12 -17.8%
CCOC(=O)C1=C(CS(=O)(=O)c2ccc(F)c(C)c2)NC(=O)NC1c1ccccc1OC (configuration not stated) -17.2%
CCCc1nnc(NC(=O)c2nc(SCC)ncc2Cl)s1 -22%
Cc1cccc(NC(=O)CCn2cnc3ccccc3c2=O)c1 -0.166%
CCOc1ccc(NC(=O)N2CCN(c3nnc(C)c4c(C)n(-c5ccccc5)nc34)CC2)cc1 -6.1%
CN(C)/N=N/c1nc[nH]c1C(N)=O -15.8%
O=c1c(=O)n(-c2ccc(F)c(F)c2)ccn1Cc1ccc(F)cc1Cl -7.37%
CCOc1ccccc1NC(=O)CN(C)S(=O)(=O)c1ccc(C(=O)N2CCOCC2)s1 -14.5%
COc1ccc(C)cc1NC(=O)C1CCCN(c2ncnc3onc(C)c23)C1 (configuration not stated) -14.7%
Cc1ccc2c(=O)cc(C(=O)Nc3sc4c(c3C(=O)NCC3CCCO3)CCC4)oc2c1 (configuration not stated) -10.5%
Cc1oc(-c2ccccc2Cl)nc1CS(=O)(=O)CC(=O)NCc1ccc(F)cc1 -18.7%
CCC(C(=O)NCc1ccccc1OC)n1nc(C)n2c(cc3occc32)c1=O (configuration not stated) -9.75%
CCCCn1c(=O)n(-c2cc(OC)ccc2OC)c(=O)c2c3c(sc21)CN(C(C)=O)CC3 -10.3%
COc1ccc(-n2nc(C(=O)Nc3cc(C)ccn3)c3c4ccccc4n(C)c3c2=O)cc1 -15.3%
CCOc1ccc(-n2nc3ccc(NC(=O)c4ccc(OC)c(Cl)c4)cc3n2)cc1 -8.63%
O=C(CC1N=C2c3ccccc3N=C(SCc3ccccc3Cl)N2C1=O)NCCc1ccccc1 (configuration not stated) -8.87%
Cc1cc(Nc2cccc(Cl)c2)nc2ccc(NC(=O)c3cncc(Br)c3)cc12 -5.48%
CCOC(=O)C1=C(CN2CCN(c3ccccc3OC)CC2)NC(=O)NC1c1ccccc1 (configuration not stated) -35%
O=C(CN1CCCN(Cc2ccccc2F)S1(=O)=O)Nc1ccc(F)c(Cl)c1 -9%
O=C(Nc1ccc(C(=O)O)c(O)c1)c1ccccc1 -12%
CC(C)NC(=O)N1[C@H](c2cccs2)[C@@H](C)C(=O)[C@@H](C)[C@@H]1c1cccs1 -11.8%
Cc1cc(C)cc(NC(=O)N2CCC(CN3CCOCC3)CC2)c1 -18.7%
CCOC(=O)Cn1c(=O)n(CC2CCCO2)c2nc(-c3ccccc3)nc(C(N)=O)c21 (configuration not stated) -18.3%
COc1ccc(C(=O)Nc2ccc(N(C)Cc3ccccc3)c(C(=O)O)c2)cc1 -6.22%
CCc1cccc(C)c1NC(=O)Cn1nc(C)n2cccc2c1=O -13.8%
COC(=O)c1cc2oc(C)cc2n1CC(=O)Nc1ccc(C(C)C)cc1 -38.5%
CCCCNC(=O)c1ccc2c(=O)n(Cc3ccc(OC)cc3)c(=O)[nH]c2c1 -8.01%
COc1ccc(-c2nnc(SCC(=O)NCCC(C)C)nc2-c2ccc(OC)c(OC)c2)cc1OC -14.8%
Cc1ccc(CNCc2ccccc2Cl)s1 -16.3%
COCc1cc(C)nc2c1C(=O)NC(c1ccc(F)cc1)N2Cc1ccccc1 (configuration not stated) -14.5%
CCOC(=O)c1c(C)oc2nc(C)nc(NCC3CCN(Cc4ccc(C)cc4)CC3)c12 -12.2%
Cc1ccccc1CSc1cn(CC(=O)N2CCCCC2)c2ccccc12 -9.65%
CC1Cc2ccccc2N1C(=O)CSc1nc2ccc(NC(=O)COc3ccccc3)cc2s1 (configuration not stated) -24.2%
CC1=C(C(=O)NCc2cccc(F)c2)C2(CCCCC2)OC1=O 15.1%
N#Cc1c(C(F)(F)F)cc(-c2cccs2)nc1SCc1ccc(F)cc1 -16%
CCCCOC(=O)c1ccc(N)cc1 -11.5%
CCOC(=O)C(C)Sc1ccc2nnc(CCNS(=O)(=O)c3ccc(C)cc3)n2n1 (configuration not stated) -9.65%
